In the supplement of paper PMC11417369:
The list shows a part of the results.

tested on: PfAP2-HC AP2 domain (GST-tagged); assay: gcPBM binding intensity (ln(normalized median fluorescence intensity)); higher = stronger DNA binding
Outline: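 Using an Agilent 4 × 180k array, primer-extended double-stranded 36-bp intergenic genomic probes and negative controls were exposed for 1 h to GST-fused P. falciparum DNA-binding domains expressed in E. coli. Binding was carried out in 1× PBS with 1% milk, 0.2 mg/ml BSA, 0.5% salmon testes DNA and 0.03% Triton X-100, and protein was detected with Alexa488 anti-GST antibody and a 488 nm scan. Binding intensity is the highest Masliner-normalised natural-log median intensity across replicate spots of either probe orientation.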

Sequence | gcPBM binding intensity (ln)
ATAATTTATTTTAAAAGTACTCAATTTGCTTTTCTC [XGTACX_site5749] | 9.48
TCCTCATTTTATCATACACACTTGTTTATATGGGTG [CACACA_site4650] | 9.74
TTTACAAAAAATTATACACACACGTACAGATAAATA [CACACA_site4678] | 10.1
TATATTTATTATAATTGTACATAAAATAAACTAAGA [XGTACX_site4318] | 9.46
AAATAATTAAACATATGTACATATTATATATATATA [XGTACX_site6774] | 9.68
TTTTAAAGTTGTGAGCTTCATTTTTATTTATATGTA [CACACA_negctrl_site1505] | 9.59
TTACAATTAATAAAGTGTACTTAACTATTATATATA [XGTACX_site481] | 9.6
TTGATCTATAATAATACACACTTACATAATTAATTA [CACACA_site6273] | 9.62
ATATATATATATGTCTGTACATAAAAAATAATAAAT [XGTACX_site3122] | 9.68
ATATTCCTACATACAACACACGACGTTCTCATAAGA [CACACA_site231] | 9.75
GGAAAATGAAAAACAAAAAAAAAAAAAAAAAAATGA [TGCATGCA_negctrl_site432] | 9.32
AAAAATAGACAAAAGAGTACAAGAAAAAAAGGGTTC [XGTACX_site7843] | 9.89
ACATCTGTTATTTGTGGTACTAAAAAAATATATAGT [XGTACX_site8322] | 9.51
TCTTTTTAGATATATACACACCGTGTCTACCTATAC [CACACA_site7551] | 10.3
ATAATATAAATACAAACACACAATTGTGTCCACATT [CACACA_site6920] | 10.3
ATCATATTTATGTTGGTGCATTATGCATGGATTTTA [GTGCAC_site9795] | 9.6
TTTTTAAATATAAACAAAAAAAAAAAATATATCAAT [XGTACX_negctrl_site328] | 9.43
ATTTTTATTTTTATTTGTACTTATATATTCTTAAGC [XGTACX_site4122] | 9.83
TAAAAAAATTTAACATGTACAAATATTGAAAAGGAC [XGTACX_site7608] | 9.87
ATTAAAAAAGAATATACACACCAAAACTGTTTGTTA [CACACA_site4687] | 9.68
TACAATTCGTAATACACACACATATATATATATATT [CACACA_site3751] | 9.97
GAAGAATAAATATGCACACATGCATATATTTTTACA [CACACA_site3459] | 9.69

Sequence | gcPBM binding intensity (ln)
ATATATTTTTACCATACACACATATAACAAATATAT [CACACA_site7706] | 9.8
TTTATTATCTTATTCACACACATATATATATATATA [CACACA_site2869] | 10.1
AGAAAAAAAAAAAAAAAAAAAAAATTGAATATATAT [TGCATGCA_negctrl_site55] | 9.35
TGTTTTTATAATATTAGTACATAATATACATAATTC [XGTACX_site2787] | 9.46
AATAAATTAATTTTGGGTACATATATATATATATAT [XGTACX_site3807] | 9.91
AAATATATATAAATGAGTACTTATGGTAACATATAT [XGTACX_site6362] | 9.78
AGAGCATAATAAAACACACACATACATACCTATATA [CACACA_site6566] | 10.9
AAAAAATATTGAAGTACACACATTATGAACTTTTTT [CACACA_site1733] | 9.81
ATAAATAATTATAATTGTACACATATATATATATAC [XGTACX_site3998] | 9.72
TTCCACATTTTACAGACACACACAATTTATATTACG [CACACA_site8572] | 10.1
TATATATATATATATACATGCATATATATAATATAT [TGCATGCA_site763] | 9.45
GTAAGTTGTGCATTCACACACATATATATATATATA [CACACA_site3303] | 9.82
TTTTGTTTCTATATAAGATGGAAATATAAACTTGTA [CACACA_negctrl_site82] | 9.4
TTAAGATCCTAAAAAACACACAATTGTGAATAATAA [CACACA_site3872] | 9.79
TTATTAAAACAAAATGTACACACATATAATTTAATG [CACACA_site8193] | 9.67
TTTTTCTTTCTTTCTTTTTTAATATTACAAATGTAT [XGTACX_negctrl_site267] | 9.63
TTCAATGCATGTCCATGTACATATAAAAAAAAATAC [XGTACX_site1597] | 9.54
TGTTGGCAGGTGAATGCATGCATATAAGTCTATCTG [TGCATGCA_site781] | 9.52
CACCCTTTACACAAGGTGCATACTTTATTATATTTT [GTGCAC_site9778] | 9.86
AAAGTAGAATATCCCCTACACACCCAAATAATTTAC [CACACA_site1255] | 10.5
AATATTTTAATGCACACACACAAAAAAAAAAAAAAA [CACACA_site7374] | 9.84
AATCCTTTACGACACACACACAAAAAAAAAAAAAAA [CACACA_site6449] | 10.3

Sequence | gcPBM binding intensity (ln)
TATATATTTTATTTATGTACGAAAATAAATTAAATT [XGTACX_site3628] | 9.36
TTAAAAAAATTAATATGTACATATATTTATATATAT [XGTACX_site5317] | 9.54
TATTAAAAAGAGGTGACACACACATATAAATCTAAA [CACACA_site9243] | 10
AACCACATACCTATAACACACATATACAATATAGAT [CACACA_site7023] | 9.98
TCCACAAAGCATGTAACACACAACATATAAGACATA [CACACA_site972] | 9.91
ACATCATAGAAAAATTGATATATATATATATATATA [CACACA_negctrl_site130] | 9.47
ATAACTTATTTTTAAAGTACATTATTATATATATAT [XGTACX_site1620] | 9.7
ATTGTAATAAATTGTAGTACATGTAAGGTTTTATTT [XGTACX_site1005] | 10
AATAAAAATATATCCACACACATATATAAATATGTA [CACACA_site6415] | 10
TTAAGAATATTTTCATGTACTCATTTTTTTTGTTAT [XGTACX_site1814] | 9.73
ATTACATATGTGAGTTGTACTATAAATATATAATAT [XGTACX_site3718] | 9.66
TATTATATATATAGGTGTACGCATTTGTCCTTTATA [XGTACX_site1385] | 9.75
AAACTTATGTTTACATGTACAGAACTTTATATTATG [XGTACX_site4843] | 9.7
TCGAACATTAACATAACACACATATAGATTTATATA [CACACA_site7380] | 9.87
TTATTCTTTAACTAAAATTATATATATATATTATAC [CACACA_negctrl_site1597] | 9.67
TTGTATGCTTCCCGACTACATTATGCCATAAATGTA [TGCATGCA_negctrl_site136] | 9.54
TAAACATTTTTAATTTTGTAAAATTTTAAATAAAAA [XGTACX_negctrl_site612] | 9.27
TTTTTTATTGTGAAACTGATATTATATTTTTTATAA [GTGCAC_negctrl_site559] | 9.55
ACAAACAAAGAAAGAACACACATACACAAGATACCT [CACACA_site7353] | 10.2
TGAATATTTTATGATTGTACATATTATAATAAACAT [XGTACX_site6113] | 9.53
AAAACAAACATTACACGTACAAAACAAGTTATAGAC [XGTACX_site6320] | 10.6
TTTTTGATATTAAAGGGTACATTATTTACAAAAAAA [XGTACX_site5284] | 9.23

Sequence | gcPBM binding intensity (ln)
ATGCTTTTTTATAAAAGTACATAAAGTTTTTACACT [XGTACX_site7307] | 9.43
CTGCCTTCCATACCCACACACTTCCCATATATTTTA [CACACA_site5491] | 10.3
ATTCTTTTATTTAGTAGTACATTTGTATTTTATTCA [XGTACX_site5790] | 9.75
GATCCTGGTTCTTGTGGTACTTGTTCATTTGTTATA [XGTACX_site7164] | 9.89
TTATTTTCTTTTTCTTGTACACACATAATATGGATG [XGTACX_site1481] | 10.3
TTGTTAATAAAAATATTGGAAAGTTTATAAAATTTT [CACACA_negctrl_site1487] | 9.33
ATAATATATATACAAACACACAATTGCGTCCACATT [CACACA_site8515] | 10.2
AAAAAGAAGAATAATACACACAAATTATTTTATATA [CACACA_site1919] | 10
TATTCCAAAAATGTGTGTACATAAATACAATATTAT [XGTACX_site2653] | 9.85
TATAATAAATGGACGGTGCGACATGACCATATGTGT [GTGCAC_site9476] | 9.85
AATAAAAAAAAAAAAAAAAAAAAAAAGACACTAAAA [CACACA_negctrl_site1075] | 9.53
CTAAAAGAACATGTGTGTACTTATGTTCTCTTTTTT [XGTACX_site5983] | 9.71
GACACCCATAAATATACACACGCACAACACAAAATA [CACACA_site8944] | 9.98
TTATTTTTTAGTAGTACACACTTTTTGTACCTTTTA [CACACA_site4503] | 9.87
CTTACCAAAAAACACACACACACAAAATATATAAAT [CACACA_site1870] | 11.2
TGTAGATTTTGTAACACACACATATAAATACAGATA [CACACA_site5343] | 10.2
TAAGGGATATGTATATGTACATACAAATATATATAA [XGTACX_site2892] | 9.62
TTTGCTTCGATATATTCACACATTTTTTTTCTTATT [CACACA_site4499] | 9.96
AAATGTAATAAATATACACACACAAATATATATATA [CACACA_site8754] | 10.3
AATTTCATTTTTAGAAGTACATTTATATTAAAAATC [XGTACX_site2888] | 9.22
CATTGACCATTAATTTGTACACAAGGGGAAATGAGG [XGTACX_site1756] | 9.58
TATATATATATATATATATATATATATATATATATT [CACACA_negctrl_site1440] | 9.39
